Positions of bridges follow the written chain, without caps; N, C: chain ends.
Tests used:
[1] = stability in human plasma (Table 3); format: in vitro ADME; details: 37° C
Protocol: This example illustrates the stability of SDF-1 chemokine analogs (as represented by Compound A (SEQ ID NO:809) and Compound B (SEQ ID NO:810)) in human plasma.
Fresh blood was collected into heparinized tubes and spun down at room temperature for 15 minutes at 1500 g, and the plasma was removed and placed in another tube. The plasma was then cooled to 4° C. by incubation on ice, and centrifuged for 15 minutes at 1500 g at 4° C. The plasma was recovered and used immediately and the leftover was frozen at −20° C.
Fractions of 0.5 ml of human plasma were aliquoted in eppendorf tubes and incubated in a heated bath at 37° C. A quantity of 200 μg of Compound B (SEQ ID NO:810) or Compound A (SEQ ID NO:809) in water (10 μg/μL in water) was added subsequently to each fraction and incubated for T=0, 5, 10, 20, 30, 60, 120, 240, 360 and 420 minutes. At the end of the incubation, the fractions were quenched by the addition of 0.20 ml 1M trifluoroacetic acid (TFA) and the tubes agitated gently and kept on ice for 10 minutes. The tubes were then diluted further with 200 μL of a 0.05% solution of TFA.
The samples were then centrifuged at 5000 rpm for 45 min at 4° C. The supernatants were extracted on solid phase.
Sep-pak C 18 cartridges (VWR #BJ9000, 100 mg, 1 ml, octadecyl column C18)) were preconditioned with 80% acetonitrile/0.1% TFA (5×1 ml) followed by TFA 0.05% (5×1 ml). The quenched (acidified) plasma samples were aspirated and applied to the column, and washed with 2×1 ml of TFA 0.05% (eluate discarded) followed by extraction with 5×1 ml of (80% acetonitrile/0.1% TFA). The samples were then frozen and lyophilized.
Dry residue was resuspended in 200 μL of (20% acetonitrile/0.1% TFA) and spun down in a centrifuge to clarify the sample by centrifugation at 5000 rpm for 15 minutes at 22° C. before loading 50 μL on HPLC.
HPLC analysis was performed on the Gilson using the following column, mobile phase, and detection systems.

Mature Granulocyte = assay: 3H-thymidine killing of mature granulocyte bone marrow cells; format: cell-based, human; details: Table 5, no drug 48 +/− 3
white blood cells = assay: growth of white blood cells in Ara-C treated mice compared to Neupogen (FIGS. 13, 14); format: in vivo, mouse (C3Hhen); details: twelve days following Ara-C
Protocol: C3Hhen mice (female) were treated with 500 mg/kg Ara-C for two cycles—on days 0 and 10. During the second cycle of Ara-C dosing, Ara-C treated mice were injected with 10 mg/kg Compound A (SEQ ID NO:809), 10 mg/kg Neupogen®, alone or together (on days—1, 0, and 1 to 3). Control represents animals treated with Ara-C alone. Blood was collected from the tail vein into heparin-containing tubes at the onset of the experiment, and one day before and 1, 7 and 12 days following the second Ara-C dose. A total white blood cell count was obtained. The results represent the mean ± one S.D. of 6 animals/group.
C3Hhen mice (female) were treated with 500 mg/kg Ara-C for two cycles—on days 0 and 10. During the second cycle of Ara-C dosing, Ara-C treated mice were injected with 10 mg/kg Compound A (SEQ ID NO:809) (defined in Examples), 10 mg/kg Neupogen®, alone or together (on days—1, 0, and 1 to 3). Control represents animals treated with Ara-C alone. […] The increase in leukocytes (white blood cells) was determined relative to the number of cells counted the day before the second cycle Ara-C dose was administered. […]
FIG. 14 depicts the results of an experiment conducted under identical conditions, but the growth (increase in leukocyte count) relative to the number of cells counted in animals treated with Ara-C alone is illustrated.

leukocytes (neutrophils) = assay: mobilization of leukocytes (neutrophils) in mice (Table 8); format: in vivo, mouse (Balb/C); details: 25 mg/kg i.v.
Protocol: Compound A was injected intravenously into Balb/C mice at 25 mg/kg. To obtain the data in Table 8, blood was collected through cardiac puncture and counted for the increase in white blood cells, and platelets.

## H2N-Lys-Pro-Val-Ser-Leu-Ser-Tyr-Arg-Cys-Pro-Cys-Arg-Phe-Phe-[Gly-Gly-Gly-Gly]-Leu-Lys-Trp-Ile-Gln-Glu-Tyr-Leu-Glu-Lys-Ala-Leu-Asn-NH2 (H-KPVSLSYRCPCRFFGGGGLKWIQEYLEKALN-NH2; lactam 20-24; cysteine pairing not given here) [Compound A]
[1]; 0 min
  Percentage of compound remaining in plasma: 100%
[1]; 5 min
  Percentage of compound remaining in plasma: 32%
[1]; 10 min
  Percentage of compound remaining in plasma: 26%
[1]; 20 min
  Percentage of compound remaining in plasma: 21%
[1]; 30 min
  Percentage of compound remaining in plasma: 8%
[1]; 60 min
  Percentage of compound remaining in plasma: 9%
Mature Granulocyte
  % CELL KILLED: 39 +/− 5%
White blood cells
  increase in leukocytes relative to Ara-C alone: approximately 7.5 fold
Leukocytes (neutrophils); Day 2, untreated day 0: 0.968 +/− 0.311
  Neutrophils: 3.159 +/− 0.761 10^9/l
Leukocytes (neutrophils); Day 2, untreated day 0: 4.78 +/− 0.88
  Lymphocytes: 3.15 +/− 1.075 10^9/l
Leukocytes (neutrophils); Day 2, untreated day 0: 1099 +/− 50
  Platelets: 1044 +/− 65 10^9/l
Leukocytes (neutrophils); Day 3
  Lymphocytes: 3.371 +/− 1.113 10^9/l
  Neutrophils: 3.209 +/− 0.735 10^9/l
  Platelets: 977 +/− 152 10^9/l
Leukocytes (neutrophils); Day 5, untreated day 5: 0.893 +/− 0.371
  Neutrophils: 1.592 +/− 0.961 10^9/l
Leukocytes (neutrophils); Day 5, untreated day 5: 6.540 +/− 0.970
  Lymphocytes: 5.325 +/− 0.771 10^9/l
Leukocytes (neutrophils); Day 5, untreated day 5: 937 +/− 169
  Platelets: 882 +/− 88 10^9/l
Leukocytes (neutrophils); Day 8
  Lymphocytes: 4.072 +/− 1.386 10^9/l
  Neutrophils: 2.513 +/− 2.733 10^9/l
  Platelets: 1111 +/− 124 10^9/l

Source: patent publication US20050059584A1, “Novel chemokine mimetics synthesis and their use” (priority 2002, published 2005)
